Experimental data reported in PMC6395754.
Results are given in words; binding and its absence hold for the method and conditions named. Binding seen in cells or lysates may run through a third protein. Some entries that bind do so weakly or less than the wild type.

Chains of the proteins cited; added tags and fusions are not shown. Lines headed by an entry give the natural chain unless they say otherwise; changes in a name come on top. A line that says so, or that is headed by a name, gives the form on record, which may keep a tag or linker.
UniProt P07737: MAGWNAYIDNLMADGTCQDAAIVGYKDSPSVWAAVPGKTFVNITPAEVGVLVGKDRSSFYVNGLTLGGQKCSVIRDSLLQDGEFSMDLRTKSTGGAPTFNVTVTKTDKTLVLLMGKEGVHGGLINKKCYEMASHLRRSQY
UniProt O60610: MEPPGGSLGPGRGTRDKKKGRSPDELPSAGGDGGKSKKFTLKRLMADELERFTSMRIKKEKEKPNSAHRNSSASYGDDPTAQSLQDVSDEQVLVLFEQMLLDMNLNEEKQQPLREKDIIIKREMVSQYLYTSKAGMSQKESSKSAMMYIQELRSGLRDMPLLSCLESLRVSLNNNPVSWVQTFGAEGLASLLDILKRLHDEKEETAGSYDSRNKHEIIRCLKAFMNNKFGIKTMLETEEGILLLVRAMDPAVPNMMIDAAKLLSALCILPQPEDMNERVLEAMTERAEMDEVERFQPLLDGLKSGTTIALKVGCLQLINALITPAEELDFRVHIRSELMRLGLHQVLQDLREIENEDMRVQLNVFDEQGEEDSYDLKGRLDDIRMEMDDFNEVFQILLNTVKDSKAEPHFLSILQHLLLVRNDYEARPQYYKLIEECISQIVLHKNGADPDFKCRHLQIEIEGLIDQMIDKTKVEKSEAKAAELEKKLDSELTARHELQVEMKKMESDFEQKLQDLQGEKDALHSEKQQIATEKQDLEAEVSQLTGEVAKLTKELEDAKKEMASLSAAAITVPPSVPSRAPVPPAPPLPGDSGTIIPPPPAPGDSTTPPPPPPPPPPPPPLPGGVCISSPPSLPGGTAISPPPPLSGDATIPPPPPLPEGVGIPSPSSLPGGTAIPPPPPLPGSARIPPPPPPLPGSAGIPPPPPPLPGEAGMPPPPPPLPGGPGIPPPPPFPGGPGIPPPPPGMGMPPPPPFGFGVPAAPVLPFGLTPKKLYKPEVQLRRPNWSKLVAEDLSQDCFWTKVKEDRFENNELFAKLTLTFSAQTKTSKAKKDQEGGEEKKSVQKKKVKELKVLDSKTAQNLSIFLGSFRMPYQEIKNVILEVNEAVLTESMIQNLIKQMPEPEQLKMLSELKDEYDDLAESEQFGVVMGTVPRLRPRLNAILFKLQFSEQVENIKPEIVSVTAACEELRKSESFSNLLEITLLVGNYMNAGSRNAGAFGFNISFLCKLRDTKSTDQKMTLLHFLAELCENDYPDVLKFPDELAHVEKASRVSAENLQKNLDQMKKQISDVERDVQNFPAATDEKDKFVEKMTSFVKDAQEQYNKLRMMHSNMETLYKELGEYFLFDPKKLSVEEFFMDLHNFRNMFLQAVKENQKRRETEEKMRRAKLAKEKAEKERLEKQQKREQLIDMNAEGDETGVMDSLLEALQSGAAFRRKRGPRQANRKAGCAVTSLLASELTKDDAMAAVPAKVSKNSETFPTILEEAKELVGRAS
3×FLAG-DIAPH1-3D (629D/640D/665D) (O60610, form named): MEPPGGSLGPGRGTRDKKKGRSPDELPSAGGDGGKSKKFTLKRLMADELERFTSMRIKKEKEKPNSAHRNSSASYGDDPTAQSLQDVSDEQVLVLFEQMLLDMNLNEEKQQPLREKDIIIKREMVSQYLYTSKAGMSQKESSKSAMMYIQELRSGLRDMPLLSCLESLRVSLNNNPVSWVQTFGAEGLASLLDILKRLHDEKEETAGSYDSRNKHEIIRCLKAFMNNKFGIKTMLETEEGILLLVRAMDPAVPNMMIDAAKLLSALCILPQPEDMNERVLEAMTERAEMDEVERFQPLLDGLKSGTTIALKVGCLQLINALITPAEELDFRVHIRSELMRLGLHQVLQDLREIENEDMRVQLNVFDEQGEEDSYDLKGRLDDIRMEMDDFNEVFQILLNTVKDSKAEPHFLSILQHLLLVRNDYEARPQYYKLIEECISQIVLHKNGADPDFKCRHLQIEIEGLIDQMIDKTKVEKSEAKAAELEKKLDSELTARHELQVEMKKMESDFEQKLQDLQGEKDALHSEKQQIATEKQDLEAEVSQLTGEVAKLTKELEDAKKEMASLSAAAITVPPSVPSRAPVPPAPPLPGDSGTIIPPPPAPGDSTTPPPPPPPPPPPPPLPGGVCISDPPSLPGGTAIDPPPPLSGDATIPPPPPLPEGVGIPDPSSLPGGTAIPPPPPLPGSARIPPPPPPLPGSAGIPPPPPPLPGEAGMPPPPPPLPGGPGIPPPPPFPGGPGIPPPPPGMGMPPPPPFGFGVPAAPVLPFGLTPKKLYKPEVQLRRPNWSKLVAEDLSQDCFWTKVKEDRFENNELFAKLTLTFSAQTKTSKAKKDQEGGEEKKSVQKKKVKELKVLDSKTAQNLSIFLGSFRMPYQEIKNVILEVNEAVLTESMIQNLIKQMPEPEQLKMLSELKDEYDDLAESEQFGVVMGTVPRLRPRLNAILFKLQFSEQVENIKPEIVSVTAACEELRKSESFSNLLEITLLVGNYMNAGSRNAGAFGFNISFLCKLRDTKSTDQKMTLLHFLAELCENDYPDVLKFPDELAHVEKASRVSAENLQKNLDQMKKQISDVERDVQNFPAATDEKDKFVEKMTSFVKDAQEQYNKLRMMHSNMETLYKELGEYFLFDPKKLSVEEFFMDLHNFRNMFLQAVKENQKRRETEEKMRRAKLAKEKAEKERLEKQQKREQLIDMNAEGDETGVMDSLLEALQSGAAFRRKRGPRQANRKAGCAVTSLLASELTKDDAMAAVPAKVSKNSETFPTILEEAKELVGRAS
3×FLAG-DIAPH1-4D (607D/629D/640D/665D) (O60610, form named): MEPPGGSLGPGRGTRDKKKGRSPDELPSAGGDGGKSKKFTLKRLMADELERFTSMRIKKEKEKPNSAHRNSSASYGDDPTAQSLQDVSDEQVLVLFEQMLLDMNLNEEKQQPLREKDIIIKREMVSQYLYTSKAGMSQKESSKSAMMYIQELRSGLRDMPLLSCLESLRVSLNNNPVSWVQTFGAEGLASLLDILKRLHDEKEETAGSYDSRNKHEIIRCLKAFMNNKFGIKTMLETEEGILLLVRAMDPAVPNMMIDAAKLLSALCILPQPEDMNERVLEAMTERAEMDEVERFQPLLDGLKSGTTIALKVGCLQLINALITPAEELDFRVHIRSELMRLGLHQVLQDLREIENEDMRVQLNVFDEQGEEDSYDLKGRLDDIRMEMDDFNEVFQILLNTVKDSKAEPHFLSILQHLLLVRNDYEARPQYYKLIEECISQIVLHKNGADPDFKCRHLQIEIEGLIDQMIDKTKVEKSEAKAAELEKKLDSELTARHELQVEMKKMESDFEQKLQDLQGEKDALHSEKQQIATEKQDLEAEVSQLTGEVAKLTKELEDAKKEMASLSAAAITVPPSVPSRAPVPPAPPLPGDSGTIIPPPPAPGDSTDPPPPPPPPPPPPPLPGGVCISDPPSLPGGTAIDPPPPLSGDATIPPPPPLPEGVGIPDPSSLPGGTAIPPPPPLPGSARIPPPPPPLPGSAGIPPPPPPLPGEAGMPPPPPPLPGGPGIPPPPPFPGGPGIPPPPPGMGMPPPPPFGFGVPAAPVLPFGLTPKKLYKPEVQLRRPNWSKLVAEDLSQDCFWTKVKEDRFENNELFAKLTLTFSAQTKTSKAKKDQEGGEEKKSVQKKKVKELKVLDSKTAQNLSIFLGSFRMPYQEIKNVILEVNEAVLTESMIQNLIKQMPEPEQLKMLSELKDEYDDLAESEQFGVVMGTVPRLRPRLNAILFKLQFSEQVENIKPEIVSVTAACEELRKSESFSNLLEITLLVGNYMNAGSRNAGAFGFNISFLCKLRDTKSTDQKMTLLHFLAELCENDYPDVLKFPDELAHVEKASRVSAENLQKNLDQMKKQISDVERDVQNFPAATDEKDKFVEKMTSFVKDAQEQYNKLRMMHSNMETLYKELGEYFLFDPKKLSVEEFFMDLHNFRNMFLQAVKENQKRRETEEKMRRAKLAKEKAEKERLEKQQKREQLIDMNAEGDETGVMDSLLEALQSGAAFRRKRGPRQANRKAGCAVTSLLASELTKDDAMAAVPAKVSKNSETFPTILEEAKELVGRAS

Tests used:
GST-profilin1 (PFN1) [1] = target: GST-profilin1 (PFN1) (UniProt P07737); assay: pull-down; 5 μg of bead-associated GST-PFN1 incubated with 1 mg of lysate proteins (TBSN buffer) for 1.5 h, washed with TBSN buffer, immunoblot; lysates of HeLa cells treated with nocodazole for 18 h and collected by mitotic shake-off; only the target purified
GST-profilin1 (PFN1) [2] = target: GST-profilin1 (PFN1) (UniProt P07737); assay: pull-down; 5 μg of bead-associated GST-PFN1 incubated with 1 mg of HeLa cell lysate proteins (TBSN buffer) for 1.5 h, washed with TBSN buffer, immunoblot; lysates of cells without nocodazole (for actin, 3A and 4A: with and without nocodazole); only the target purified
GST-profilin1 (PFN1) [3] = target: GST-profilin1 (PFN1) (UniProt P07737); assay: condition: 5 μg of bead-associated GST-PFN1 with 1 mg of cell lysate proteins; pull-down; 5 μg of bead-associated GST-PFN1 incubated with 1 mg of HeLa cell lysate proteins (TBSN buffer) for 1.5 h, washed with TBSN buffer, immunoblot; lysates of cells without nocodazole (for actin, 3A and 4A: with and without nocodazole); only the target purified

3×FLAG-DIAPH1-S629A (from UniProt O60610 1-1272)
binding (GST-profilin1 (PFN1) [1]): binds weakly

3×FLAG-DIAPH1-S640D (from UniProt O60610 1-1272)
binding (GST-profilin1 (PFN1) [2]): binds

3×FLAG-DIAPH1-S665A (from UniProt O60610 1-1272)
binding (GST-profilin1 (PFN1) [1]): binds weakly

3×FLAG-DIAPH1-3A (S629A/S640A/S665A) (from UniProt O60610 1-1272)
binding (GST-profilin1 (PFN1) [2]): binds

3×FLAG-DIAPH1-4A (T607A/S629A/S640A/S665A) (from UniProt O60610 1-1272)
binding (GST-profilin1 (PFN1) [2]): binds

3×FLAG-DIAPH1-S665D (from UniProt O60610 1-1272)
binding (GST-profilin1 (PFN1) [2]): binds

3×FLAG-DIAPH1-T607D (from UniProt O60610 1-1272)
binding (GST-profilin1 (PFN1) [2]): binds

3×FLAG-DIAPH1-3D (629D/640D/665D) (from UniProt O60610 1-1272)
binding (GST-profilin1 (PFN1) [3]): no binding

3×FLAG-DIAPH1-S629D (from UniProt O60610 1-1272)
binding (GST-profilin1 (PFN1) [2]): binds

3×FLAG-DIAPH1-4D (607D/629D/640D/665D) (from UniProt O60610 1-1272)
binding (GST-profilin1 (PFN1) [3]): no binding
